Measured values from the supplement of paper PMC10126150.
Values marked as one replicate rest on one cluster of the flow cell; about a third of the high ones do not repeat.

These sequences were tested on ATP (assay: switch fluorescence ratio, 500 uM ATP over buffer (Cy3 cluster intensity, sum of 5 cycles each) (fold (ratio)); higher = stronger signal-on switching upon ATP binding; sequences stand for … in TCGTCGGCAGCGTCAGATGTGTATAAGAGACAGTTTTTTTTTTTTTTTTTTTTTTTTT…TC). Settings: aptamer strand: ATP DNA aptamer (quencher-CACCTGGGGGAGTATTGCGGAGGAAGG + anchor), 100 nM annealed; ATP concentration: 500 uM; one replicate.
In short: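 For every switch-domain sequence, the fluorescence ratio is the mean of per-cluster values, each being summed target-cycle Cy3 intensity over summed buffer-cycle Cy3 intensity. Clusters outside 100-1000 RFU were excluded. On a modified Illumina MiSeq flow-cell, the Cy3-labelled switching-strand clusters were annealed to 100 nM quencher-labelled ATP aptamer, imaged in selection buffer and then after 15 min with 500 uM ATP at 22 °C. Five such cycles were run, with NaOH stripping and re-annealing between them.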
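Further: ATP exposure 15 min at 22 °C before imaging.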

| Sequence | switch fluorescence ratio |
| --- | --- |
| GAATTGAGAG | 0.916 |
| GAATTGATGT | 1.01 |
| GAATTTACAG | 1.02 |
| GAATTTACGC | 1.06 |
| GAATTTGTAA | 0.963 |
| GAATTTTAAA | 0.973 |
| GACAAAAGCA | 1.02 |
| GACAAACGAT | 1.27 |
| GACAAGAAAA | 0.976 |
| GACAATAAGG | 0.989 |
| GACAATATGA | 0.964 |
| GACAATGCAA | 2.94 |
| GACAATTGGT | 1.02 |
| GACACCGGCT | 1.05 |
| GACACCTATC | 1.2 |
| GACACGAAAT | 1.15 |
| GACACGCGGT | 1.01 |
| GACACGGTAC | 2.18 |
| GACAGACTCT | 1.05 |
| GACAGATAGG | 0.962 |
| GACAGCATTT | 1.11 |
| GACAGCGTCT | 1 |
| GACAGCTCTT | 1.01 |
| GACAGGAGCG | 1.05 |
| GACATATTTG | 1 |

| Sequence | switch fluorescence ratio |
| --- | --- |
| GACATCATCT | 1.06 |
| GACATGGAGG | 0.997 |
| GACATTTGAC | 1.04 |
| GACCAAATTC | 1.05 |
| GACCACCCGT | 1.01 |
| GACCACTAAC | 1.19 |
| GACCAGTACT | 1.28 |
| GACCATGTTG | 1.03 |
| GACCCCAATA | 1.48 |
| GACCCCCGA | 1.34 |
| GACCCGCAGG | 0.965 |
| GACCGCGCTC | 1.87 |
| GACCGCTGAT | 1.18 |
| GACCGGAGGA | 0.995 |
| GACCGGGGCT | 0.975 |
| GACCGTACAT | 1.41 |
| GACCGTTCCT | 1.24 |
| GACCTATCAA | 1.01 |
| GACCTCACTT | 1.16 |
| GACCTCCAGT | 1.03 |
| GACCTGTGA | 0.986 |
| GACCTTGATC | 1.08 |
| GACCTTTTTG | 0.989 |
| GACGAAAAAA | 1.04 |
| GACGAAGAAG | 0.979 |

| Sequence | switch fluorescence ratio |
| --- | --- |
| GACGAAGAGC | 1.03 |
| GACGAAGT | 1.03 |
| GACGAATGAT | 1.01 |
| GACGACGGCA | 1.3 |
| GACGACTTTG | 1.07 |
| GACGAGTATG | 1.05 |
| GACGATCATC | 1.08 |
| GACGATGGCT | 1.07 |
| GACGATTTTC | 0.976 |
| GACGCAAAAA | 1.58 |
| GACGCAATCA | 2.45 |
| GACGCACCGT | 1.49 |
| GACGCATGGA | 1.98 |
| GACGCGTCAA | 0.983 |
| GACGCTATTC | 2.55 |
| GACGCTGTGG | 1.16 |
| GACGCTTGCC | 1.08 |
| GACGGAATAG | 3.98 |
| GACGGGCTGA | 1.01 |
| GACGGGTGGA | 1.04 |
| GACGGGTTT | 0.997 |
| GACGGGTTTA | 1.03 |
| GACGGTGAAA | 1.03 |
| GACGGTGGCG | 0.919 |
| GACGGTTGGT | 0.949 |

| Sequence | switch fluorescence ratio |
| --- | --- |
| GACGTCAAAC | 1.07 |
| GACGTGGCCT | 1.03 |
| GACGTTACGA | 1.41 |
| GACGTTCACT | 1.18 |
| GACGTTCAGG | 0.995 |
| GACGTTGAAA | 1.02 |
| GACTAAGAAA | 1.01 |
| GACTAGGAGA | 0.963 |
| GACTATAGAC | 1.1 |
| GACTATAGTA | 1.02 |
| GACTATATGA | 1.04 |
| GACTATCACT | 1.1 |
| GACTATGCAG | 1.07 |
| GACTATGGCT | 0.998 |
| GACTCAACTG | 0.93 |
| GACTCACATT | 1.24 |
| GACTCATATG | 1.02 |
| GACTCCCGT | 1.13 |
| GACTCGCGCC | 1.61 |
| GACTCTGGGG | 1.02 |
| GACTCTTTAA | 1.03 |
| GACTCTTTTA | 1 |
| GACTGAAAGG | 0.939 |
| GACTGAGGAC | 1.04 |
| GACTGCCTCT | 0.974 |

| Sequence | switch fluorescence ratio |
| --- | --- |
| GACTGCGAGC | 1.08 |
| GACTGCTCTA | 1.02 |
| GACTGGAATT | 0.961 |
| GACTGTCTCG | 0.894 |
| GACTGTGGG | 0.993 |
| GACTTGGTGG | 0.949 |
| GACTTGTAAT | 1.04 |
| GACTTTTGCG | 0.992 |
| GAGAAAAGGT | 0.957 |
| GAGAAAGGGC | 0.976 |
| GAGAAGGCTT | 1.07 |
| GAGAAGGGCG | 1.03 |
| GAGAATAAGA | 1.02 |
| GAGAATAAGG | 0.942 |
| GAGAATAGGA | 1.02 |
| GAGAATCTTA | 0.996 |
| GAGAATGGTC | 1.01 |
| GAGAATTCGG | 1.03 |
| GAGACAGAGC | 1.01 |
| GAGACTTTGT | 1.01 |
| GAGAGAAGTA | 0.979 |
| GAGAGACTGA | 0.992 |
| GAGAGCTAGG | 0.944 |
| GAGAGGAACA | 1.02 |
| GAGAGGGAGT | 1.04 |

| Sequence | switch fluorescence ratio |
| --- | --- |
| GAGAGGTCCT | 1 |
| GAGAGGTGTG | 0.992 |
| GAGATACTTG | 1.05 |
| GAGATAGTGG | 1.02 |
| GAGATATGAT | 0.998 |
| GAGATCAGTG | 1.02 |
| GAGATCCGAC | 1.1 |
| GAGATCTAAA | 0.973 |
| GAGATGGGAA | 1.01 |
| GAGATTACGG | 1.03 |
| GAGATTCACC | 0.962 |
| GAGCAAGGGG | 1.01 |
| GAGCCACCCA | 0.998 |
| GAGCCATCAA | 0.991 |
| GAGCCCAGTT | 1.09 |
| GAGCCGAGCT | 0.957 |
| GAGCCGGTTT | 0.982 |
| GAGCGAAGCT | 0.986 |
| GAGCGAGGAG | 0.957 |
| GAGCGCAGGT | 1.07 |
| GAGCGCCCAA | 1.01 |
| GAGCGCCGT | 0.955 |
| GAGCGCTAC | 2.44 |
| GAGCGGATCA | 0.97 |
| GAGCGGCAGG | 0.989 |

| Sequence | switch fluorescence ratio |
| --- | --- |
| GAGCGGCGAA | 1.02 |
| GAGCGGCGTC | 1.13 |
| GAGCGGGAAT | 1.04 |
| GAGCGGGCGA | 1.08 |
| GAGCGGTGGG | 1.02 |
| GAGCGTCTAA | 0.966 |
| GAGCGTTTAC | 1.3 |
| GAGCGTTTG | 0.966 |
| GAGCTAGTGA | 1 |
| GAGCTATTAT | 1.06 |
| GAGCTCAGTT | 0.999 |
| GAGCTCGACC | 0.998 |
| GAGCTGAGGC | 1.03 |
| GAGCTTATCC | 0.922 |
| GAGCTTCTT | 1.06 |
| GAGGAAGAGA | 1.01 |
| GAGGAATAGA | 1.01 |
| GAGGACCTTG | 0.957 |
| GAGGAGACGC | 1.07 |
| GAGGATTACC | 0.99 |
| GAGGCACGGT | 1.05 |
| GAGGCAGCAG | 1.07 |
| GAGGCAGGCT | 1.07 |
| GAGGCCGATA | 1.02 |
| GAGGCGACTC | 0.994 |

| Sequence | switch fluorescence ratio |
| --- | --- |
| GAGGCTACAT | 1.04 |
| GAGGCTTAAA | 0.992 |
| GAGGGACACA | 1.07 |
| GAGGGAGCT | 1.04 |
| GAGGGAGTGT | 1.02 |
| GAGGGCTGTA | 1.07 |
| GAGGGGAGCC | 0.965 |
| GAGGGGGGT | 1.01 |
| GAGGGGTGAT | 1.07 |
| GAGGGTAG | 1.02 |
| GAGGGTAGGA | 0.997 |
| GAGGGTGGG | 0.956 |
| GAGGGTGGTA | 0.943 |
| GAGGTAATTG | 1.02 |
| GAGGTAGTAT | 1.05 |
| GAGGTCAACG | 1.01 |
| GAGGTCAAGT | 0.97 |
| GAGGTCGCCC | 0.992 |
| GAGGTGAAAA | 1.02 |
| GAGGTGAGCA | 0.956 |
| GAGGTGCAA | 1.11 |
| GAGGTGCTAA | 0.958 |
| GAGGTGGCTA | 1.02 |
| GAGGTGTAAG | 0.965 |
| GAGGTGTGGC | 1.09 |
